Test results as given in US9868789B2, “Synergistic combinations of OX40L antibodies for the treatment of GvHD” (Kymab Limited, priority 2015, dated 2018).
“And” between values parts separate entries of the source, which are not always exact repeats. Identical values can stand only once. “Also recorded” adds a separate entry of the source.

Experiments:
[1] = target: T1, recombinant hOX40L (Homo sapiens, UniProt P23510); experiment: Surface plasmon resonance, apparent affinity to human OX40L; format: binding; conditions: SPR, 25° C., OX40L at 256 nM; CNROR = Cannot resolve off-rate
T1 construct: cDNA encoding the extracellular domain of human OX40L was cloned into a pREP4 expression plasmid; made in house; host or cells: FreeStyle CHO-S, transient expression
Procedure: (§1) SPR analysis was carried out using the ProteOn™ XPR36 Array System (BioRad). Anti-mouse IgG (GE Healthcare BR-1008-38) was immobilised on a GLM biosensor surface using amine coupling, the surface was then blocked using 1 M ethanolamine. Test antibodies were captured on this surface and recombinant hOX40L (human and rhesus) were used at a single concentration of 256 nM, binding sensorgrams were double referenced using a buffer injection (i.e. 0 nM) to remove baseline drift and injection artefacts. Apparent affinities for the OX40L-antibody interaction were determined using the 1:1 model inherent to the ProteOn XPR36 analysis software. The assay was run using HBS-EP (Teknova) as running buffer and carried out at 25° C.

[2] = target: Rhesus monkey OX40L; experiment: Surface plasmon resonance, apparent affinity to rhesus OX40L; format: binding, Rhesus (Macaca mulatta); conditions: SPR, 25° C., OX40L at 256 nM; CNROR = Cannot resolve off-rate
Procedure: as §1

[3] = system: CD3 primed primary human T lymphocytes; experiment: Effect of anti-OX40L antibodies on CD3 primed primary human T lymphocytes (IFN-γ release); format: cell-based; conditions: 10 μg/mL, 5 days, four independent donors; versus human IgG4PE isotype control
Procedure: In order to determine whether anti-OX40L had the ability to induce T-cell responses in the absence of OX40L, the assay below was performed using method adapted from Wang et al., Hybridoma (Larchmt)., 2009 Aug.; 28(4):269-76, in which an agonist anti-OX40L antibody was described.
A mouse anti-human CD3 antibody (Becton Dickinson) was diluted to 0.5 μg/mL in sterile PBS and 50 μL/well added to a 96 well high binding sterile plate and incubated overnight at 4° C.
Following overnight incubation, the plate was washed three times with 100 μL of sterile PBS.
T-cells (CD3 positive) were isolated from PBMC derived from leukoreduction system chambers (NHSBT) as described in Example 3. Following isolation, the cells were added to wells in 100 μL to achieve a final concentration of 1×10^5 cells/well.
Test antibodies were diluted in RPMI+10% FBS and 50 μL or 100 μL/well added to cell plate to achieve a final assay concentration of 10 μg/mL. In some cases, a mouse anti-human CD28 antibody (Becton Dickinson) was also added to wells at a final concentration of 1 μg/ml
The assay was incubated for 5 days. After 5 days, harvest supernatants and IFN-γ levels in supernatant were determined as described in Example 5.

[4] = system: peripheral blood donor chimerism; experiment: Donor chimerism in the rhesus GvHD model (MHC-linked microsatellite markers); format: in vivo, Rhesus macaque; conditions: individual animals
[5] = system: memory stem T-cells (Tscm) and naïve T-cells (Tn); experiment: Flow cytometry of T cell subsets (Tscm, Tn) in the rhesus GvHD model; format: in vivo, Rhesus macaque
Procedure: Blood was collected into tubes with Sodium EDTA, and then red blood cells were lysed with lysis buffer containing ammonium chloride. Remaining leukocytes were washed with FACS buffer (PBS with 2% FBS) and stained with antibody cocktail (Table 7) for 30 minutes at 4° C. After staining, cells were washed and fixed in 1×BD Stabilizing Fixative. Acquisition of flow data was performed on BD LSR Fortessa cytometer. Data were analyzed using FloJo. T-cells were defined as CD3+CD14/CD20-lymphocytes.

[6] = system: Rhesus Macaque model of haploidentical hematopoietic stem cell transplantation (HSCT); experiment: Rhesus Macaque Graft Versus Host Disease (GvHD) model, 2D10 IgG4PE monotherapy prophylaxis
[7] = individual animals (#1 r6, #2 r7, #3 r8, #4 r9, #5 r10, #6 r11), 10 mg/kg i.v., brackets = experimental failure

T1 sequence (P23510 with tags, fused parts or gaps): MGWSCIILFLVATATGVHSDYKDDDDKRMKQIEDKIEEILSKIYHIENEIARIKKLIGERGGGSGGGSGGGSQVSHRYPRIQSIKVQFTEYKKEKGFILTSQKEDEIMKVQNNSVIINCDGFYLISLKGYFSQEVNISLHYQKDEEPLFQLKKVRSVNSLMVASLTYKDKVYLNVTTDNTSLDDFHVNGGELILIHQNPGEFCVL

B1: 2D10 IgG4PE: fully human anti-human OX40L antibody, IgG4-PE; heavy chain SEQ ID No:62, light chain SEQ ID No:64 (antibody, listed as Homo Sapiens)
heavy: EVQLVESGGGLVQPGGSLRLSCAASGFTFSNYAMNWVRQAPGKGLEWVSTISGSGGATRYADSVKGRFTISRDNSRNTVYLQMNSLRVEDTAVFYCTKDRLIMATVRGPYYYGMDVWGQGTTVTVSSASTKGPSVFPLAPCSRSTSESTAALGCLVKDYFPEPVTVSWNSGALTSGVHTFPAVLQSSGLYSLSSVVTVPSSSLGTKTYTCNVDHKPSNTKVDKRV[human IgG4 Fc with changes not spelt out]
light: DIQMTQSPSSLSASVGDRVTITCRASQSISSYLNWYQQKPGKAPNLLIYAASSLQSGVPSRFSGSGSETDFTLTISSLQPEDFATYYCQQSHSVSFTFGPGTKVDIKRTVAAPSVFIFPPSDEQLKSGTASVVCLLNNFYPREAKVQWKVDNALQSGNSQESVTEQDSKDSTYSLSSTLTLSKADYEKHKVYACEVTHQGLSSPVTKSFNRGEC
[1]
  Apparent Affinity hOX40L (nM): CNROR
[2]
  Apparent Affinity RhsOX40L (nM): CNROR
[3]
  IFN-γ release from CD3 primed T-cells in the absence of OX40L: no effect
[4]; Day 0
  Whole Blood Chimerism (%) Day 0: 0%
[4]; Day 1
  Whole Blood Chimerism (%) Day 1: 16.6% and 5.7% and 22.9%
[4]; Day 4
  Whole Blood Chimerism (%) Day 4: 6.6%
[4]; Day 5
  Whole Blood Chimerism (%) Day 5: 91.4% and 66.3% and 31.7% and 68.2%
[4]; Day 7
  Whole Blood Chimerism (%) Day 7: 27.5%
[4]; Day 8
  Whole Blood Chimerism (%) Day 8: 98.4% and 97.4% and 66.3% and 82.9%
[4]; Day 11
  Whole Blood Chimerism (%) Day 11: 90.4%
[4]; Day 12
  Whole Blood Chimerism (%) Day 12: 98.6% and 99.5% and 82.3% and 92.1%
[4]; Day 14
  Whole Blood Chimerism (%) Day 14: 81.8%
[4]; Day 15
  Whole Blood Chimerism (%) Day 15: 99.1% and 99.4% and 88.2% and 97.5%
[4]; Day 16
  Whole Blood Chimerism (%) Day 16: 79.8%
[4]; Day 18
  Whole Blood Chimerism (%) Day 18: 19.7%
[4]; Day 20
  Whole Blood Chimerism (%) Day 20: 99.2% and 98.4%
[4]; Day 21
  Whole Blood Chimerism (%) Day 21: 0%
[4]; Day 23
  Whole Blood Chimerism (%) Day 23: 98.6% and 98.8%
[4]; Day 26
  Whole Blood Chimerism (%) Day 26: 98.7%
[4]; day of peak printed per animal (Day 12 to Day 23)
  peak peripheral blood donor chimerism: 88% and 99% (2×) and 100%
[5]; CD4+ and CD8+ Tscm, compared with sirolimus and Tac/MTX treatment, FIG. 6
  proportion of post-HCT Tscm cells in peripheral blood: sustained inhibition of the proportion of Tscm cells
[5]; peripheral blood, FIG. 4
  CD4+ Tn (naïve) cells following allogeneic HCT: preserving CD4+ T naïve cells; also recorded: preservation of CD4+ Tn cells
  CD4+ Tscm expansion following allogeneic HCT: controls expansion of CD4+ Tscm cells; also recorded: limited CD4+ Tscm expansion
[6]; 10 mg/kg i.v., rhesus HSCT recipients
  serious adverse dosing side effects: No serious adverse dosing side effects
[6]; 2D10 monotherapy, n=4
  median survival time, MST: 19 days
[6]; animal #4
  visceral GvHD at gross necropsy: confirmed no overt visceral GvHD.
[6]; in words
  clinical symptoms of acute GVHD: reduces clinical symptoms of acute GVHD
  survival of animals after allogeneic HCT: prolonged survival
[6]; individual animals
  evidence of CMV or rhLCV infection: No evidence; also recorded: No evidence of CMV or rhLCV; also recorded: repopulation concurrent with evidence of CMV and rhLCV
[6]; individual animals #1, #2, #4, #5, #6, #1 recorded as Technical Failure
  Survival to Day: Survival to Day 16. Received 3 doses of 2D10 IgG4PE. Peak day; also recorded: Survival to Day 26. Received 4 doses of 2D10 IgG4PE. Clear day; also recorded: Survival to Day 22. Received 4 doses of 2D10 IgG4PE. Clear day; also recorded: Survival to Day 16. Received 3 doses of 2D10 IgG4PE. Clear day; also recorded: Survival to day 24. Received 4 doses of 2D10 IgG4PE. Biphasic
[6]; [7]
  Survival Duration: 22 days and 16 days (2×) and 26 days
  Survival Duration (days): (24) days; also recorded: (0) days
